Source: PMC4336329 (PLoS ONE, 2015)
The campaign covered roughly 310,000 compounds. About 14,000 (4.5%) showed an effect of 50% or more. The effect is printed as a negative number. Some of the results follow.

biological target: human ether-à-go-go-related gene (hERG) potassium channel (human, UniProt Q12809); test: primary screen, population patch clamp on CHO cells stably expressing hERG
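Note: peak tail current of the secondary pulse compared with the same well before compound.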

human ether-à-go-go-related gene (hERG) potassium channel, sequence (Q12809 whole entry, looked up): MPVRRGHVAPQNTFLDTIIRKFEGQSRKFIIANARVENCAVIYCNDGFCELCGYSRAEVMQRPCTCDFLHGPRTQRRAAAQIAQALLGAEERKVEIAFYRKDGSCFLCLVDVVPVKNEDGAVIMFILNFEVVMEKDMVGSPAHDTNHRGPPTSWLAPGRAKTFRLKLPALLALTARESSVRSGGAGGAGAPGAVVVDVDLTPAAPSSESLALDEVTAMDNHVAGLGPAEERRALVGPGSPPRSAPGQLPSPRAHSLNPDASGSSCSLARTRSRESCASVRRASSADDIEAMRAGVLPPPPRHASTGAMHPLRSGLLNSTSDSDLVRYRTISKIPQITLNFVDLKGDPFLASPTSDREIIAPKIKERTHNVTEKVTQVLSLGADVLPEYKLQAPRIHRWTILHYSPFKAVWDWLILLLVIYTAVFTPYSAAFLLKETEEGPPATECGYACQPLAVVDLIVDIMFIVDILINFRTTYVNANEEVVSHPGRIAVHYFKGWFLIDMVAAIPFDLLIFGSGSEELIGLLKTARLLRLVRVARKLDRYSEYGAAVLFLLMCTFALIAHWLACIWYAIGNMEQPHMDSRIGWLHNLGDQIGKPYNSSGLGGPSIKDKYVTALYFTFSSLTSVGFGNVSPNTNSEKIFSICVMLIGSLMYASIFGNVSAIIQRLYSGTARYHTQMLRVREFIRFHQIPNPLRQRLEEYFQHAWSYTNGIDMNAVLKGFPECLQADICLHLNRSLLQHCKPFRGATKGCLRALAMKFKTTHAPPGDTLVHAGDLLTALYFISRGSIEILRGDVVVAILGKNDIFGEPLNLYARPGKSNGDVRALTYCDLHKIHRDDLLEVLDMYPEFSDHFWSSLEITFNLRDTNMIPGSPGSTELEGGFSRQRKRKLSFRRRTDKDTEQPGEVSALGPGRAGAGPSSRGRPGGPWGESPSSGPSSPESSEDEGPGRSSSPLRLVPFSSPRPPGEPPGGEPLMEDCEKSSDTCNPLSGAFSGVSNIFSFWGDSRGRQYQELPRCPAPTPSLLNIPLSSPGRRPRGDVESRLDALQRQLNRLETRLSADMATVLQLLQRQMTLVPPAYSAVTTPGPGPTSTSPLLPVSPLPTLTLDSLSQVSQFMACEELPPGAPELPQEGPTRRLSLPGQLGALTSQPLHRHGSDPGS

Row | SMILES | hERG current change (%, negative = inhibition) at 10uM [%]
1 | CC(=O)N(c1ccc2oc(=O)sc2c1)S(=O)(=O)c1ccc(C)cc1 | 8.61
2 | CC(C)(C)c1ccc(C(=O)NCCN2CCOCC2)cc1 | 1.01
3 | O=C(Nc1ccc(N2CCCC2)c(Cl)c1)c1ccccc1[N+](=O)[O-] | -9.06
4 | O=C(O)c1ccc2c(=O)n3cc(C(=O)c4ccccc4O)cc(Cl)c3nc2c1 | 1.38
5 | CNc1c(NS(=O)(=O)c2ccc(CC(C)C)cc2)c(=O)oc2ccccc12 | 21.1
6 | CC1CC(C)CN(CCCNC(=O)c2ccc(N3CCCC3=O)cc2)C1 (centres unmarked) | 2.62
7 | Cc1ccc(-n2nc3c(c2NC(=O)CC(C)C)CS(=O)(=O)C3)cc1 | -0.57
8 | CON(C)S(=O)(=O)NC(=O)C1=C(N2CCCC2)COC1=O | 19.3
9 | CC1CCCC(C)N1C(=O)COC(=O)c1cc(-c2cccs2)nn1-c1ccccc1 (centres unmarked) | 2.56
10 | CC1CC(C)(C)NC(=S)N1CC(=O)NCc1ccccc1Cl (centres unmarked) | 13.7
11 | COCC(=O)Nc1nnc(Cc2ccc(OC)c(OC)c2)s1 | -7.97
12 | Oc1ccccc1O | 10.6
13 | O=C(C1CCN(S(=O)(=O)c2cccnc2)CC1)N1CCN(C2CCCC2)CC1 | 20.5
14 | O=C(c1n[nH]c2ccccc12)N1CCN(S(=O)(=O)c2ccc(Cl)cc2)CC1 | -6.47
15 | CCCOC1CCCN(C(=O)c2ccc3oc(C(C)C)nc3c2)C1 (centres unmarked) | 3.64
16 | O=C(NCc1ccco1)C(c1ccccc1F)N(CC1CCCO1)C(=O)Cn1nnc2ccccc21 (centres unmarked) | -19.2
17 | COc1cc(C(C)=O)ccc1COc1ccc(C(=O)OCC(=O)NC(C)(C)C)cc1OC | -1.07
18 | COc1cc(-c2cc(C(=O)Nc3ccc(S(=O)(=O)Nc4ncccn4)cc3)c3ccccc3n2)cc(OC)c1OC | -7.01
19 | COc1ccc(OC)c(C2C(C(=O)Nc3ccccc3OC)=C(C)Nc3nc(CCCO)nn32)c1 (centres unmarked) | 13.8
20 | C[C@]12CCC(=O)C[C@H]1CC[C@@H]1[C@@H]2CC[C@]2(C)[C@@H](O)CC[C@@H]12 | -18.7
21 | CC1c2nc3ccccc3n2C(CC(=O)NCc2ccccn2)C(=O)N1Cc1ccccc1 (centres unmarked) | 17.8
22 | O=C(CC1C(=O)NCCN1Cc1cccc(Oc2ccccc2)c1)NCCCn1cccn1 (centres unmarked) | -0.678
23 | O=C(NC(Cc1cccc(F)c1)C(=O)O)C1CCCCC1 (centres unmarked) | 12.7
